# The other results are listed elsewhere or left out. The full chains were built here from the parent and the listed change. Values near 0.05 are background.
# B1: TEV protease; numbered along this chain (parent)
# chain: MGESLFKGPRDYNPISSSICHLTNESDGHTTSLYGIGFGPFIITNKHLFRRNNGTLVVQSLHGVFKVKDTTTLQQHLVDGRDMIIIRMPKDFPPFPQKLKFREPQREERICLVTTNFQTKSMSSMVSDTSCTFPSGDGIFWKHWIQTKDGQCGSPLVSTRDGFIVGIHSASNFTNTNNYFTSVPKNFMELLTNQEAQQWVSGWRLNADSVLWGGHKVFMVKPEEPFQPVKEATQL
# Variants of: B1
# Assay: raw area under fraction-flipped curve 0-4 h after induction (AUC4h, not background-subtracted), DNA-recorder readout of cleavage of the substrate (dimensionless); higher = more cleavage of the substrate by the protease variant
# Conditions: temperature: 34 °C; time window: 0-4 h after rhamnose induction
# Procedure: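 In vivo DNA recorder in E. coli TOP10(DE3) ΔrhaA at 34 °C. Each TEVp single-site mutant (parent TEVp 0) is paired with a single-site variant of the 7-mer TEVs (canonical ENLYFQ|S). The substrate sits between flexible linkers in a Bxb1-sfGFP-TEVs-SsrA fusion, so cleavage stabilises Bxb1 and speeds flipping of a recombination array, read by NGS. The value is the raw area under the fraction-flipped curve over 0-4 h after rhamnose induction (AUC4h), with ≥20 reads per time point. It is not background-subtracted; inactive controls average about 0.047.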
# 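Further: Bxb1 expression induced with 0.2% (w/v) L-rhamnose at OD600 near 0.5, cultures sampled hourly, flipped fraction per protease–substrate barcode pair counted by paired-end Illumina sequencing.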
variant,measurement,value
MGESLFKGPRDYNPISSSICHLTNESDGHTTSLYGIGFGPFIITNKHLFRRNNGTLVVQSLHGVFKVKDTTTLQQHLVDGRDMIIIRMPKDFPPFPQKLKFREPQREERICLLTTNFQTKSMSSMVSDTSCTFPSGDGIFWKHWIQTKDGQCGSPLVSTRDGFIVGIHSASNFTNTNNYFTSVPKNFMELLTNQEAQQWVSGWRLNADSVLWGGHKVFMVKPEEPFQPVKEATQL [V113L],area with substrate ENLYAQS,0.11
same,area with substrate ENLYCQS,0.0852
same,area with substrate ENLYDQS,0.0728
same,area with substrate ENLYEQS,0.0662
same,area with substrate ENLYGQS,0.0826
same,area with substrate ENLYHQS,0.0677
same,area with substrate ENLYIQS,0.122
same,area with substrate ENLYKQS,0.0728
same,area with substrate ENLYLQS,0.114
same,area with substrate ENLYMQS,0.0612
same,area with substrate ENLYNQS,0.0659
same,area with substrate ENLYPQS,0.0873
same,area with substrate ENLYRQS,0.0636
same,area with substrate ENLYSQS,0.0705
same,area with substrate ENLYVQS,0.115
same,area with substrate ENLYWQS,0.0813
MGESLFKGPRDYNPISSSICHLTNESDGHTTSLYGIGFGPFIITNKHLFRRNNGTLVVQSLHGVFKVKDTTTLQQHLVDGRDMIIIRMPKDFPPFPQKLKFREPQREERICLNTTNFQTKSMSSMVSDTSCTFPSGDGIFWKHWIQTKDGQCGSPLVSTRDGFIVGIHSASNFTNTNNYFTSVPKNFMELLTNQEAQQWVSGWRLNADSVLWGGHKVFMVKPEEPFQPVKEATQL [V113N],area with substrate ENLYAQS,0.0558
same,area with substrate ENLYEQS,0.0595
same,area with substrate ENLYHQS,0.0468
same,area with substrate ENLYIQS,0.0748
same,area with substrate ENLYLQS,0.0683
same,area with substrate ENLYMQS,0.0454
same,area with substrate ENLYNQS,0.0583
same,area with substrate ENLYQQS,0.0449
same,area with substrate ENLYRQS,0.0699
same,area with substrate ENLYTQS,0.0192
same,area with substrate ENLYYQS,0.0579
MGESLFKGPRDYNPISSSICHLTNESDGHTTSLYGIGFGPFIITNKHLFRRNNGTLVVQSLHGVFKVKDTTTLQQHLVDGRDMIIIRMPKDFPPFPQKLKFREPQREERICLHTTNFQTKSMSSMVSDTSCTFPSGDGIFWKHWIQTKDGQCGSPLVSTRDGFIVGIHSASNFTNTNNYFTSVPKNFMELLTNQEAQQWVSGWRLNADSVLWGGHKVFMVKPEEPFQPVKEATQL [V113H],area with substrate ENLYAQS,0.0654
same,area with substrate ENLYDQS,0.0492
same,area with substrate ENLYEQS,0.0708
same,area with substrate ENLYGQS,0.0611
same,area with substrate ENLYHQS,0.0744
same,area with substrate ENLYKQS,0.062
same,area with substrate ENLYNQS,0.0719
same,area with substrate ENLYPQS,0.0678
same,area with substrate ENLYQQS,0.0575
same,area with substrate ENLYRQS,0.0557
same,area with substrate ENLYTQS,0.0689
same,area with substrate ENLYVQS,0.104
same,area with substrate ENLYWQS,0.0557
same,area with substrate ENLYYQS,0.0577
MGESLFKGPRDYNPISSSICHLTNESDGHTTSLYGIGFGPFIITNKHLFRRNNGTLVVQSLHGVFKVKDTTTLQQHLVDGRDMIIIRMPKDFPPFPQKLKFREPQREERICLCTTNFQTKSMSSMVSDTSCTFPSGDGIFWKHWIQTKDGQCGSPLVSTRDGFIVGIHSASNFTNTNNYFTSVPKNFMELLTNQEAQQWVSGWRLNADSVLWGGHKVFMVKPEEPFQPVKEATQL [V113C],area with substrate ENLYAQS,0.0354
same,area with substrate ENLYDQS,0.0587
same,area with substrate ENLYEQS,0.0688
same,area with substrate ENLYGQS,0.0664
same,area with substrate ENLYHQS,0.0701
same,area with substrate ENLYIQS,0.137
same,area with substrate ENLYKQS,0.0197
same,area with substrate ENLYMQS,0.0885
same,area with substrate ENLYNQS,0.0712
same,area with substrate ENLYPQS,0.0774
same,area with substrate ENLYQQS,0.0566
same,area with substrate ENLYSQS,0.0771
same,area with substrate ENLYTQS,0.0844
same,area with substrate ENLYVQS,0.126
same,area with substrate ENLYWQS,0.0657
same,area with substrate ENLYYQS,0.0803
MGESLFKGPRDYNPISSSICHLTNESDGHTTSLYGIGFGPFIITNKHLFRRNNGTLVVQSLHGVFKVKDTTTLQQHLVDGRDMIIIRMPKDFPPFPQKLKFREPQIEERICLVTTNFQTKSMSSMVSDTSCTFPSGDGIFWKHWIQTKDGQCGSPLVSTRDGFIVGIHSASNFTNTNNYFTSVPKNFMELLTNQEAQQWVSGWRLNADSVLWGGHKVFMVKPEEPFQPVKEATQL [R106I],area with substrate ENLYAQS,0.0649
same,area with substrate ENLYEQS,0.0751
same,area with substrate ENLYGQS,0.0585
same,area with substrate ENLYHQS,0.0646
same,area with substrate ENLYKQS,0.0534
same,area with substrate ENLYLQS,0.0778
same,area with substrate ENLYPQS,0.101
same,area with substrate ENLYRQS,0.0644
same,area with substrate ENLYSQS,0.0687
same,area with substrate ENLYTQS,0.0787
same,area with substrate ENLYVQS,0.0954
same,area with substrate ENLYWQS,0.0883
same,area with substrate ENLYYQS,0.0677
MGESLFKGPRDYNPISSSICHLTNESDGHTTSLYGIGFGPFIITNKHLFRRNNGTLVVQSLHGVFKVKDTTTLQQHLVDGRDMIIIRMPKDFPPFPQKLKFREPQREERICLVTTNFQTKSKSSMVSDTSCTFPSGDGIFWKHWIQTKDGQCGSPLVSTRDGFIVGIHSASNFTNTNNYFTSVPKNFMELLTNQEAQQWVSGWRLNADSVLWGGHKVFMVKPEEPFQPVKEATQL [M122K],area with substrate ENLYAQS,0.0629
same,area with substrate ENLYDQS,0.0479
same,area with substrate ENLYGQS,0.053
same,area with substrate ENLYHQS,0.0789
same,area with substrate ENLYIQS,0.138
same,area with substrate ENLYKQS,0.0575
same,area with substrate ENLYMQS,0.0804
same,area with substrate ENLYNQS,0.0618
same,area with substrate ENLYPQS,0.0654
same,area with substrate ENLYQQS,0.0637
same,area with substrate ENLYRQS,0.0618
same,area with substrate ENLYWQS,0.0921
same,area with substrate ENLYYQS,0.0583
MGESLFKGPRDYNPISSSICHLTNESDGHTTSLYGIGFGPFIITNKHLFRRNNGTLVVQSLHGVFKVKDTTTLQQHLVDGRDMIIIRMPKDFPPFPQKLKFREPQREERICLVTTNFQTKSPSSMVSDTSCTFPSGDGIFWKHWIQTKDGQCGSPLVSTRDGFIVGIHSASNFTNTNNYFTSVPKNFMELLTNQEAQQWVSGWRLNADSVLWGGHKVFMVKPEEPFQPVKEATQL [M122P],area with substrate ENLYAQS,0.064
same,area with substrate ENLYDQS,0.0669
same,area with substrate ENLYEQS,0.0694
same,area with substrate ENLYGQS,0.064
same,area with substrate ENLYHQS,0.0663
same,area with substrate ENLYIQS,0.118
same,area with substrate ENLYKQS,0.0604
same,area with substrate ENLYLQS,0.0809
same,area with substrate ENLYMQS,0.0935
same,area with substrate ENLYNQS,0.0756
same,area with substrate ENLYPQS,0.0813
same,area with substrate ENLYQQS,0.0753
same,area with substrate ENLYRQS,0.0893
same,area with substrate ENLYSQS,0.0749
same,area with substrate ENLYTQS,0.0799
same,area with substrate ENLYVQS,0.118
same,area with substrate ENLYWQS,0.0863
MGESLFKGPRDYNPISSSICHLTNESDGHTTSLYGIGFGPFIITNKHLFRRNNGTLVVQSLHGVFKVKDTTTLQQHLVDGRDMIIIRMPKDFPPFPQKLKFREPQREERICLVTTNFQTKSYSSMVSDTSCTFPSGDGIFWKHWIQTKDGQCGSPLVSTRDGFIVGIHSASNFTNTNNYFTSVPKNFMELLTNQEAQQWVSGWRLNADSVLWGGHKVFMVKPEEPFQPVKEATQL [M122Y],area with substrate ENLYAQS,0.0921
same,area with substrate ENLYDQS,0.0646
same,area with substrate ENLYEQS,0.0675
same,area with substrate ENLYHQS,0.0731
same,area with substrate ENLYIQS,0.148
same,area with substrate ENLYKQS,0.0579
same,area with substrate ENLYLQS,0.0716
same,area with substrate ENLYMQS,0.0782
same,area with substrate ENLYNQS,0.0664
same,area with substrate ENLYPQS,0.0637
same,area with substrate ENLYQQS,0.0533
same,area with substrate ENLYRQS,0.0698
same,area with substrate ENLYTQS,0.0817
same,area with substrate ENLYVQS,0.131
same,area with substrate ENLYWQS,0.0773
MGESLFKGPRDYNPISSSICHLTNESDGHTTSLYGIGFGPFIITNKHLFRRNNGTLVVQSLHGVFKVKDTTTLQQHLVDGRDMIIIRMPKDFPPFPQKLKFREPQREERICLVTTAFQTKSMSSMVSDTSCTFPSGDGIFWKHWIQTKDGQCGSPLVSTRDGFIVGIHSASNFTNTNNYFTSVPKNFMELLTNQEAQQWVSGWRLNADSVLWGGHKVFMVKPEEPFQPVKEATQL [N116A],area with substrate ENLYAQS,0.0739
same,area with substrate ENLYCQS,0.0892
same,area with substrate ENLYDQS,0.0971
same,area with substrate ENLYEQS,0.0621
same,area with substrate ENLYGQS,0.0638
same,area with substrate ENLYHQS,0.0714
same,area with substrate ENLYIQS,0.105
same,area with substrate ENLYKQS,0.0613
same,area with substrate ENLYMQS,0.11
same,area with substrate ENLYPQS,0.058
same,area with substrate ENLYRQS,0.0534
same,area with substrate ENLYSQS,0.0763
same,area with substrate ENLYTQS,0.0854
same,area with substrate ENLYVQS,0.0669
same,area with substrate ENLYWQS,0.0972
same,area with substrate ENLYYQS,0.0582

# From the supplement of paper PMC12217912
